This passage reports binding signal (RPM ratio (pull-down/input)) results from publication PMC12820563.

Some of the results follow. The list includes weakly bound sequences.

This experiment has as its target T1, MBP-FoxP3dN (UniProt Q99JB6).
T1 sequence: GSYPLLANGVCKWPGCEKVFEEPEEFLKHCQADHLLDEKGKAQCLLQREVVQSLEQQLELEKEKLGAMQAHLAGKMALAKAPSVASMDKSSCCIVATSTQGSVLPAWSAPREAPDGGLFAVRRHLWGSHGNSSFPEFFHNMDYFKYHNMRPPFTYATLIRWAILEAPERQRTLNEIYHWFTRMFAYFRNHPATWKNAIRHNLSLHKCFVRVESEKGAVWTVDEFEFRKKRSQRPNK
The experiment can be described thus: PD-seq (MBP pull-down with sequencing). The following applies: 20 mM Tris-HCl pH 7.5, 100 mM NaCl, 1.5 mM MgCl2, 0.4 uM protein, 0.1 uM dsDNA library, 30 min, room temperature, amylose pull-down; high values mean tight binding; double strand, one strand shown.
On to “GATGATTGTTCTCCCAGCTGATGAATTTCTTAATTCGAGTAAACAAATTTTCCTAATCTTTCTGTTCAAGCGCCATCTAC”, for which the binding signal (RPM ratio (pull-down/input)) came to 0.276.

For “GATGATTGTTCTCCCAGCTGATGAATTGGATAACTCGAGTAAACAAATTTTCCTAATCTTTCTGTTCAAGCGCCATCTAC”, the binding signal (RPM ratio (pull-down/input)) is 0.323.

Take “GATGATTGTTCTCCCAGCTGATGAATTTGGGCTATCGAGTAAACAAATTTTCCTAATCTTTCTGTTCAAGCGCCATCTAC”: the binding signal (RPM ratio (pull-down/input)) amounted to 0.725.

Take “GATGATTGTTCTCCCAGCTGATGAATTACTTCTTTCGAGTAAACAAATTTTCCTAATCTTTCTGTTCAAGCGCCATCTAC”: the binding signal (RPM ratio (pull-down/input)) stood at 0.268.

Take “GATGATTGTTCTCCCAGCTGATGAATTTGACTGTTCGAGTAAACAAATTTTCCTAATCTTTCTGTTCAAGCGCCATCTAC”: the binding signal (RPM ratio (pull-down/input)) was 0.85.

Turning to “GATGATTGTTCTCCCAGCTGATGAATTCTCCATGTCGAGTAAACAAATTTTCCTAATCTTTCTGTTCAAGCGCCATCTAC”, the binding signal (RPM ratio (pull-down/input)) was found to be 0.249.

“GATGATTGTTCTCCCAGCTGATGAATTGACTTCATCGAGTAAACAAATTTTCCTAATCTTTCTGTTCAAGCGCCATCTAC”: the binding signal (RPM ratio (pull-down/input)) is 0.378.

On to “GATGATTGTTCTCCCAGCTGATGAATTCCTTAGTTCGAGTAAACAAATTTTCCTAATCTTTCTGTTCAAGCGCCATCTAC”, for which the binding signal (RPM ratio (pull-down/input)) amounted to 0.275.

In the case of “GATGATTGTTCTCCCAGCTGATGAATTCCCGATGTCGAGTAAACAAATTTTCCTAATCTTTCTGTTCAAGCGCCATCTAC”, the binding signal (RPM ratio (pull-down/input)) was determined as 0.297.

As to “GATGATTGTTCTCCCAGCTGATGAATTTACGGGGTCGAGTAAACAAATTTTCCTAATCTTTCTGTTCAAGCGCCATCTAC”, the binding signal (RPM ratio (pull-down/input)) came to 0.323.

As to “GATGATTGTTCTCCCAGCTGATGAATTCCTAATATCGAGTAAACAAATTTTCCTAATCTTTCTGTTCAAGCGCCATCTAC”, the binding signal (RPM ratio (pull-down/input)) was determined as 0.374.

“GATGATTGTTCTCCCAGCTGATGAATTCTCCCCTTCGAGTAAACAAATTTTCCTAATCTTTCTGTTCAAGCGCCATCTAC”: the binding signal (RPM ratio (pull-down/input)) turned out to be 0.205.

As to “GATGATTGTTCTCCCAGCTGATGAATTTTGGCCATCGAGTAAACAAATTTTCCTAATCTTTCTGTTCAAGCGCCATCTAC”, the binding signal (RPM ratio (pull-down/input)) stood at 1.6.

Regarding “GATGATTGTTCTCCCAGCTGATGAATTGTACAATTCGAGTAAACAAATTTTCCTAATCTTTCTGTTCAAGCGCCATCTAC”, the binding signal (RPM ratio (pull-down/input)) came out at 0.443.

With “GATGATTGTTCTCCCAGCTGATGAATTCTACAGCTCGAGTAAACAAATTTTCCTAATCTTTCTGTTCAAGCGCCATCTAC”, the binding signal (RPM ratio (pull-down/input)) came out at 0.263.

For “GATGATTGTTCTCCCAGCTGATGAATTAGCTTAGTCGAGTAAACAAATTTTCCTAATCTTTCTGTTCAAGCGCCATCTAC”, the binding signal (RPM ratio (pull-down/input)) stood at 1.23.

In the case of “GATGATTGTTCTCCCAGCTGATGAATTGATCACCTCGAGTAAACAAATTTTCCTAATCTTTCTGTTCAAGCGCCATCTAC”, the binding signal (RPM ratio (pull-down/input)) is 0.663.

Take “GATGATTGTTCTCCCAGCTGATGAATTCATTTCTTCGAGTAAACAAATTTTCCTAATCTTTCTGTTCAAGCGCCATCTAC”: the binding signal (RPM ratio (pull-down/input)) was found to be 0.743.

As for “GATGATTGTTCTCCCAGCTGATGAATTCTTGGGATCGAGTAAACAAATTTTCCTAATCTTTCTGTTCAAGCGCCATCTAC”, the binding signal (RPM ratio (pull-down/input)) was 0.227.

Consider “GATGATTGTTCTCCCAGCTGATGAATTTTGGCCGTCGAGTAAACAAATTTTCCTAATCTTTCTGTTCAAGCGCCATCTAC”, for which the binding signal (RPM ratio (pull-down/input)) came out at 0.44.

For the sequence “GATGATTGTTCTCCCAGCTGATGAATTACTCCATTCGAGTAAACAAATTTTCCTAATCTTTCTGTTCAAGCGCCATCTAC”, the binding signal (RPM ratio (pull-down/input)) came out at 0.327.

As to “GATGATTGTTCTCCCAGCTGATGAATTGTTATCCTCGAGTAAACAAATTTTCCTAATCTTTCTGTTCAAGCGCCATCTAC”, the binding signal (RPM ratio (pull-down/input)) was 2.64.

On to “GATGATTGTTCTCCCAGCTGATGAATTTGATGCGTCGAGTAAACAAATTTTCCTAATCTTTCTGTTCAAGCGCCATCTAC”, for which the binding signal (RPM ratio (pull-down/input)) was 3.1.

“GATGATTGTTCTCCCAGCTGATGAATTTCTTCTGTCGAGTAAACAAATTTTCCTAATCTTTCTGTTCAAGCGCCATCTAC”: the binding signal (RPM ratio (pull-down/input)) came out at 0.203.

As to “GATGATTGTTCTCCCAGCTGATGAATTCATACTATCGAGTAAACAAATTTTCCTAATCTTTCTGTTCAAGCGCCATCTAC”, the binding signal (RPM ratio (pull-down/input)) was 0.534.

Consider “GATGATTGTTCTCCCAGCTGATGAATTTGCTAGATCGAGTAAACAAATTTTCCTAATCTTTCTGTTCAAGCGCCATCTAC”, for which the binding signal (RPM ratio (pull-down/input)) stood at 0.528.

Turning to “GATGATTGTTCTCCCAGCTGATGAATTGTAGATCTCGAGTAAACAAATTTTCCTAATCTTTCTGTTCAAGCGCCATCTAC”, the binding signal (RPM ratio (pull-down/input)) came out at 0.487.

As for “GATGATTGTTCTCCCAGCTGATGAATTAACGCAATCGAGTAAACAAATTTTCCTAATCTTTCTGTTCAAGCGCCATCTAC”, the binding signal (RPM ratio (pull-down/input)) was determined as 2.75.

On to “GATGATTGTTCTCCCAGCTGATGAATTCACCTAGTCGAGTAAACAAATTTTCCTAATCTTTCTGTTCAAGCGCCATCTAC”, for which the binding signal (RPM ratio (pull-down/input)) was determined as 0.241.

In the case of “GATGATTGTTCTCCCAGCTGATGAATTGAGGTAATCGAGTAAACAAATTTTCCTAATCTTTCTGTTCAAGCGCCATCTAC”, the binding signal (RPM ratio (pull-down/input)) is 0.557.

“GATGATTGTTCTCCCAGCTGATGAATTGGGATATTCGAGTAAACAAATTTTCCTAATCTTTCTGTTCAAGCGCCATCTAC”: the binding signal (RPM ratio (pull-down/input)) stood at 0.812.

As to “GATGATTGTTCTCCCAGCTGATGAATTGTAGCATTCGAGTAAACAAATTTTCCTAATCTTTCTGTTCAAGCGCCATCTAC”, the binding signal (RPM ratio (pull-down/input)) worked out at 5.76.
